Reference: US20260151501A1, “ANTIBODY-DRUG CONJUGATE COMPRISING ANTI-CLAUDIN-18.2 ANTIBODY, AND THERAPEUTIC USE THEREOF FOR CANCER” (ABTIS CO., LTD., priority 2022, published 2026)

B1: Antibody-A: anti-claudin18.2 antibody with heavy chain of SEQ ID NO: 16 and light chain of SEQ ID NO: 17 (antibody)
heavy: QVQLVESGGGVVQPGRSLRLSCAASGFSLTTYGVHWVRQAPGKGLEWVAVIWAGGSTNYNSALMSRFTISRDNSKNTLYLQMNSLRAEDTAVYYCARAAYYGNGLDYWGQGTMVTVSS[… human IgG1 constant region …]
light: DIVMTQSPLSLPVTPGEPASISCKSSQTLLNSGNQKNYLTWYLQKPGQSPQLLIYWASTGESGVPDRFSGSGSGTDFTLKISRVEAEDVGVYYCQNAYFYPFTFGGGTKVEIKRTVAAPSVFIFPPSDEQLKSGTASVVCLLNNFYPREAKVQWKVDNALQSGNSQESVTEQDSKDSTYSLSSTLTLSKADYEKHKVYACEVTHQGLSSPVTKSFNRGEC
modifications: heavy chain of Claudin18.2 antibody; light chain of Claudin18.2 antibody
B2: ADC-A (conjugate)
heavy: B1 heavy
light: B1 light

Legend:
[1] = Plasma stability, monkey plasma; format: in vitro ADME; conditions: 37° C., 15 days, relative to day 0 (5 minutes)
Protocol: (§1) Centrifugation in the pretreatment process was performed under the conditions of 13,000 rpm and 4° C. for 10 minutes.
(§2) Human, monkey, rat, and mouse plasma were prepared.
(§3) For example, when the linker was cleaved in ADC-A, it was not included in total ADC.

[2] = Plasma stability, mouse plasma; format: in vitro ADME; conditions: 37° C., 15 days, relative to day 0 (5 minutes)
Protocol: as §1, §2, §3

MOCK CHO-K1 = assay: Cell-based ELISA binding to MOCK CHO-K1 cells; conditions: negative control, empty vector
Protocol: (§4) OD value measurement through ELISA was performed by measuring the absorbance at 450 nm using a UV-Vis spectrometer.
A CHO-K1 cell line (hereinafter, referred to as “Claudin18.1 CHO-K1”) into which a gene (SEQ ID NO: 18) encoding the claudin18.1 protein (CLDN18.1) was transiently transfected, a CHO-K1 cell line (hereinafter, referred to as “Claudin18.2 CHO-K1”) into which a gene (SEQ ID NO: 19) encoding the claudin18.2 protein (CLDN18.2) was transiently transfected, and a CHO-K1 cell line (hereinafter, referred to as “MOCK CHO-K1”) into which only a NOCK vector (empty vector) was transiently transfected were prepared. At this time, a pcDNA3.1 vector was used for Claudin18.1 CHO-K1, and a pcDNA3.1 (+) vector was used for Claudin18.2 CHO-K1. […]
Transient transfection was performed according to the TransIT2020 manual, the transfected cells were plated on a 96-well plate for culture, and then treated with each of antibody-A and ADC-A. Thereafter, cell-based enzyme-linked immunosorbent assay (ELISA) was performed, and optical density (OD) values were measured.
The measured results were used for a regression analysis using GraphPad PRISM® 9.0 software to calculate EC50 and Bmax. The cell binding affinity of antibody-A and ADC-A was evaluated based on the calculated values.

[3] = tested on: MIA PaCa-2 (CLDN18.2-) cell line; assay: Cytotoxicity (CellTiter-Glo cell viability), MIA PaCa-2 (CLDN18.2-); format: cell-based
Protocol: To measure cell viability in cytotoxicity experiments, the measurement of luminescence using GloMax® Discover was used, and the measurement method was according to the equipment manual.
(§5) Four types of cell lines (MIA PaCa-2˜CLDN18.2, PATU8988S, parental MIA PaCa-2 (CLDN18.2-), SNU601, NUGC-4, and AGS) were prepared. At this time, MIA PaCa-2˜CLDN18.2 and PATU8988S are CLDN18.2-positive pancreatic cancer cell lines. MIA PaCa-2 (CLDN18.2-) is a CLDN18.2-negative pancreatic cancer cell line. SNU601 and NUGC-4 are CLDN18.2-positive gastric cancer cell lines. AGS is a CLDN18.2-negative gastric cancer cell line.
The prepared cell lines were cultured in DMEM containing 10% FBS and 1% penicillin/streptomycin (MIA PaCa-2˜CLDN18.2, MIA PaCa-2 (CLDN18.2-)), RPMI1640 containing 10% FBS and 1% penicillin/streptomycin (SNU601, NUGC-4, and AGS), and DMEM containing 5% FBS, 5% horse serum, 1% penicillin/streptomycin, and […] L-glutamine (PATU8988S) in an incubator under the conditions of 37° C. and 5% CO2. […]
Changes in cell viability according to treatment of each test substance were measured using the same method as the CellTiter-Glo manual.
The measured results were used for a regression analysis in GraphPad PRISM® 9.0 software to calculate IC50. The cytotoxicity of each test substance was evaluated based on the calculated values.

[4] = tested on: MIA PaCa-2 (CLDN18.2-) cell line; assay: Cell-based ELISA binding to MIA PaCa-2 (CLDN18.2-) cells; conditions: CLDN18.2 negative cell line
Protocol: as §4
as §5, with “(CLDN18.2-),” for “(CLDN18.2-), SNU601, NUGC-4,”, “SNU601)” for “AGS)”, “is a” for “and NUGC-4 are”, “cell” for “cell lines. AGS is a CLDN18.2-negative gastric cancer cell”
The prepared cell lines were cultured in DMEM containing 10% FBS and 1% penicillin/streptomycin (MIA PaCa-2˜CLDN18.2, MIA PaCa-2 (CLDN18.2-)), RPMI1640 containing 10% FBS and 1% penicillin/streptomycin (SNU601), and DMEM containing 5% FBS, 5% serum, 1% penicillin/streptomycin, and 2 mM L-glutamine (PATU8988S) in an incubator under the conditions of 37° C. and 5% CO2.
The prepared cell lines were plated on 96-well plates for culture, and then treated with each of antibody-A, ADC-A, antibody-B, and ADC-B. Thereafter, cell-based ELISA was performed, and OD values were measured.
The measured results were used for a regression analysis in GraphPad PRISM® 9.0 software to calculate EC50 and Bmax. The cell binding affinity of antibody-A, ADC-A, antibody-B, and ADC-B to each cell line was evaluated based on the calculated values.

[5] = Body weight and gastric histology in SNU601 tumor model mice; format: in vivo, BALB/c nude mouse; conditions: for effects on the changes in body weight: during the study period; for histological gastric lesions: even in the highest concentration administration group G8
Excerpt: For tumor development, the SNU601 cell line (1×10^7) was mixed with serum-free medium and Matrigel, and the resulting mixture was subcutaneously inoculated into the left flank of each BALB/c nude mouse (purchased from Charles River Laboratories Japan Inc.). The mice were randomly assigned to eight groups (G1 to G8) on the basis that the average tumor volume in each group reached about 155 mm^3.
All animals were observed twice a day for mortality, abnormal symptoms, pain, and signs of stress, and once a day for clinical signs. The changes in body weight and the tumor volume were measured three times a week, and the tumor weight was determined after autopsy.

[6] = Day 1, 2 mg/kg intravenous injection once/day 1 (G2, G8)
[7] = Day 28, 2 mg/kg intravenous injection once/day 1 (G2, G8)

Molecule	total antibody maintained [1]	total antibody maintained [2]	binding to MOCK CHO-K1 cell line (MOCK CHO-K1)	IC50 ([3]; MIA PaCa-2 (CLDN18.2−), pancreatic cancer)	binding to parental MIA PaCa-2 [4]	Body weight (mean ± standard deviation) [5, 6]	Body weight (mean ± standard deviation) [5, 7]	effects on the changes in body weight [5]	histological gastric lesions [5]	total ADC maintained [1]	total ADC maintained [2]	toxicity in CLDN18.2-negative cell lines ([3]; up to the highest treatment concentration, MIA PaCa-2 (CLDN18.2-))	Body weight (mean ± standard deviation) ([5]; Day 1, 1 mg/kg intravenous injection once/day 1 (G3, G4))	Body weight (mean ± standard deviation) ([5]; Day 1, 1 mg/kg intravenous injection twice/day 1 and day 7 (G5))	Body weight (mean ± standard deviation) ([5]; Day 1, 1.5 mg/kg intravenous injection once/day 1 (G6))	Body weight (mean ± standard deviation) ([5]; Day 1, 1.75 mg/kg intravenous injection once/day 1 (G7))	Body weight (mean ± standard deviation) ([5]; Day 28, 1 mg/kg intravenous injection once/day 1 (G3, G4))	Body weight (mean ± standard deviation) ([5]; Day 28, 1 mg/kg intravenous injection twice/day 1 and day 7 (G5))	Body weight (mean ± standard deviation) ([5]; Day 28, 1.5 mg/kg intravenous injection once/day 1 (G6))	Body weight (mean ± standard deviation) ([5]; Day 28, 1.75 mg/kg intravenous injection once/day 1 (G7))
B1	97.3%	72.0%	did not bind	> 66.7 nM	none of the test substances bound	20.2 ± 1.3 g	23.0 ± 1.5 g	no effects	No histological gastric lesions	–	–	–	–	–	–	–	–	–	–	–
B2	90.3%	78.7%	did not bind	–	none of the test substances bound	20.8 ± 1.5 g	23.6 ± 2.3 g	no effects	No histological gastric lesions	77.5%	77.0%	almost no toxicity	20.2 ± 0.8 g	20.0 ± 1.0 g	20.1 ± 0.6 g	20.4 ± 1.2 g	22.2 ± 0.9 g	22.3 ± 0.7 g	22.8 ± 1.0 g	22.6 ± 1.0 g
